According to article PMC10432808:
No constants are given. Whether binding was seen depends on the method and setting. For some assays here: In cells and extracts the contact can be indirect. Some entries that bind do so weakly or less than the wild type.

By UniProt entry, the sequences of proteins in these tests, tags left out. Where a name states a change or a piece, a line headed by the entry shows the natural chain unless it says otherwise. Chains listed by the source or under a name are the forms on record and can include a tag or linker. Residues count along the entry.
UniProt D3ZYS7: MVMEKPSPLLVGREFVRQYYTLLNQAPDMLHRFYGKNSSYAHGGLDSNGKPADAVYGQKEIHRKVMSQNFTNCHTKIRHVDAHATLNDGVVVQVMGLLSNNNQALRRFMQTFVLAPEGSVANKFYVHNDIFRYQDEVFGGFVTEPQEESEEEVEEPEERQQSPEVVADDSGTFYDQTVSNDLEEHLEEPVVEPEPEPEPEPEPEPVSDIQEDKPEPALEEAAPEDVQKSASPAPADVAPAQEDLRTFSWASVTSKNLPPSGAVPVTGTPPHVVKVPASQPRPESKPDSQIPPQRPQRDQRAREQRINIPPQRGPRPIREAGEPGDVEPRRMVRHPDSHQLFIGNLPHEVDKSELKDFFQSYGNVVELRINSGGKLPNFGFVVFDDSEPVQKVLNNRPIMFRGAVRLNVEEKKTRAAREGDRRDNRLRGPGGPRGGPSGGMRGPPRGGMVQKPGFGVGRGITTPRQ
FLAG-tagged NTF2+AcidRich+PxxP of rat G3BP1: residues 1-340 of D3ZYS7
FLAG-tagged NTF2-like domain of rat G3BP1: residues 1-140 of D3ZYS7
FLAG-tagged AcidRich+PxxP of rat G3BP1: residues 141-340 of D3ZYS7
UniProt P06730: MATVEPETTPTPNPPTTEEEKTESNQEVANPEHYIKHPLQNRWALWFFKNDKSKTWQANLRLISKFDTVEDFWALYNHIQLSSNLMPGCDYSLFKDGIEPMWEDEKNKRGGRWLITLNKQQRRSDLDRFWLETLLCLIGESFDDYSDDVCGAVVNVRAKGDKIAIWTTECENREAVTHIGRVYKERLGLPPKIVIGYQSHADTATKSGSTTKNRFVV
UniProt Q13283: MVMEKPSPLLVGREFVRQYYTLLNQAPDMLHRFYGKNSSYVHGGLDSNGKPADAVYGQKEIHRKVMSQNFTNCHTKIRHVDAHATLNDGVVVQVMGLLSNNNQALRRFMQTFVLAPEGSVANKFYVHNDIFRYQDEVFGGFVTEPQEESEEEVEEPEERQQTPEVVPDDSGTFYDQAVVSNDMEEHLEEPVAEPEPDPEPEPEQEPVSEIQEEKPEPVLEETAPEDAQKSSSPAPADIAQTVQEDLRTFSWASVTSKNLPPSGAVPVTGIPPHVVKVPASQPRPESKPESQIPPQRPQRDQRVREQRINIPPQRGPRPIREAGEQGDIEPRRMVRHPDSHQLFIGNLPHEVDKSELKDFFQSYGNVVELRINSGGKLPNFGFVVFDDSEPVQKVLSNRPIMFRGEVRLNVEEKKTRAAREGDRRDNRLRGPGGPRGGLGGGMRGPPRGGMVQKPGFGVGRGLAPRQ

Assays:
[1] = molecular target: FLAG-tagged AcidRich+PxxP of rat G3BP1 (rat) (UniProt D3ZYS7); assay: co-IP; HEK293T cells transfected with FLAG-tagged G3BP1 constructs; lysate (1 mg) with FLAG beads 2 h at 4 °C; Western blot for endogenous eIF4E
[2] = molecular target: FLAG-tagged NTF2+AcidRich+PxxP of rat G3BP1 (rat) (UniProt D3ZYS7); assay: as above
[3] = molecular target: FLAG-tagged NTF2-like domain of rat G3BP1 (rat) (UniProt D3ZYS7); assay: as above
[4] = molecular target: FLAG-tagged full-length rat G3BP1 (rat) (UniProt D3ZYS7); assay: as above
[5] = molecular target: GST-eIF4E, purified recombinant protein (UniProt P06730); assay: pull-down; His-G3BP1 (2 μg) and GST-eIF4E (4 μg) mixed in Tris buffer with proteinase inhibitors overnight at 4 °C; GSH beads 2 h at 4 °C; Western blot; cell-free; both purified

Substance | binding [1] | binding [2] | binding [3] | binding [4] | binding [5]
eIF4E, endogenous in HEK293T cells (from UniProt P06730 1-217) | no binding | no binding | binds | binds | –
His-G3BP1, purified recombinant protein (from UniProt Q13283 1-466) | – | – | – | – | binds
